For 22 molecules, binding signal results are on record in publication PMC12136788.

Substitutions are numbered along the chain they refer to. Some of the results follow.

T1: UNK ZnF1-3 (human, UniProt Q9C0B0 31-174)
T1 sequence: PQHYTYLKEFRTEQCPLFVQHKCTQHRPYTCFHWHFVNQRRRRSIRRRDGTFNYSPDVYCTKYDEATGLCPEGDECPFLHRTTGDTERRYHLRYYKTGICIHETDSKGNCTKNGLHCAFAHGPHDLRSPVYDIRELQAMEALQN

B1: chr6:119166446:119166447:+_ENSMUSG00000041477_ENSMUST00000149651|mus_mus|FALSE|FALSE (ssRNA)
RNA: GGGAGUUCUACAGUCCGACGAUCUGCCCAAGGCCUUUGUUUUAAAAAUCAUGAACAAUUUCUGAGGACCUACUCUGAGCUAUGUGAUGAAACAAGUAAAAAAGAUCAAGAUUUUUAAAUAAAUAAAAUAAAAAUAAAAAUAAACAACAGAGGAUUGAGCAUCA
B2: chr3:58389919:58389920:+_ENSMUSG00000075700_ENSMUST00000107924|mus_mus|FALSE|FALSE (ssRNA)
RNA: GGGAGUUCUACAGUCCGACGAUCGCUAGGAGCUUGCAUGCCGAAAAAAGCAAAAGGAUCUUUGCCAACAAUUAUUAAGCCUAUUAAUACUAGUUUGAAGACUGACAGGAAAGAUGCUAUGUGUCUAUAAAUUGGUUGAGGGAGCAACAGAGGAUUGAGCAUCA
B3: chr6:38652254:38652255:-_ENSG00000124767_ENST00000373365|hu_hu|hu_hu_hu_mus_False|88_108 (ssRNA)
RNA: GGGAGUUCUACAGUCCGACGAUCCGAAAACUUCAUAGCAGGGAAGUCACAUUUUUGCAGGAGGGUCAGUCCAAGAACCCUCGUAUAAAAAUCCAGGGACUUCUUAGGAUCCUUAAUUCUUAGCAUCGUUUGCUGCAGUAGAAACAACAGAGGAUUGAGCAUCA
B4: chr2:130640030:130640031:-_ENSMUSG00000027309_ENSMUST00000044766|mus_hu|FALSE|FALSE (ssRNA)
RNA: GGGAGUUCUACAGUCCGACGAUCAUAGCGAAAGUUUACAGGAUUACAGUACAGAUGGACGCUAUCCGAUUUAAUCAAUAUAAUUACAUCAUCUAGUACUUCUUCAGAAAAUCCCGUUUUCUCAAAAUCACUGGUAUUCUGAUUCAACAGAGGAUUGAGCAUCA
B5: chr17:8508246:8508247:-_ENSG00000133026_ENST00000269243|hu_hu|FALSE|FALSE (ssRNA)
RNA: GGGAGUUCUACAGUCCGACGAUCGUACAUUUCAAUAAUAUUCUCAGAGUAAAUUGGAAGAUUCUUGUAAGGGUUUAUAACUACACAGAAGAGUCCAGAAUAAGUAUAGAUUAGUCCUGAAUAGUAGCGAUCCUUCAGAUUAUGCAACAGAGGAUUGAGCAUCA
B6: chr5:180275300:180275301:-_ENSG00000196670_ENST00000512132|hu_mus|FALSE|FALSE (ssRNA)
RNA: GGGAGUUCUACAGUCCGACGAUCAGUUGUGAUCUUCCUACCACAAACCAUUACUGUUAAGUCUAUAAUUCAUGACCCACUAAUAAACUGAUAUUCCCUGAAACCAUCCUCUCCCUGAAUUUGCCUGUUGGAGGCCCUUCUUGGCAACAGAGGAUUGAGCAUCA
B7: 53426069_53429338_2499_3pUTR_ENSMUSG00000032030_ENSMUST00000166367|mouse|control|control (ssRNA)
RNA: GGGAGUUCUACAGUCCGACGAUCCAUUGCUAAUUUUCUUUCUCAUUUUCAUUAUUUGUAUGAUGGCUUCCUGGGUUCUUAAUAUUCUUAGUUGGACUAUCCCUUCAUUUUCUUCUUCUCUCAUUCGUUCUGUAGUGAGCUGCACAACAGAGGAUUGAGCAUCA
B8: chr2:117085994:117085995:+_ENSMUSG00000027349_ENSMUST00000028825|mus_mus|motif|central (ssRNA)
RNA: GGGAGUUCUACAGUCCGACGAUCAGACUUGGGGACCCCGAGGGCAUCACAUACAGCUUGAACUUCCUGGCAAAUUUCACGGUUUUUAUCUAACUGAGAAUUUUUAUGUUUUUUCUUCUGUAAUAUUUGUAAAGCUUGAAGUUCCAACAGAGGAUUGAGCAUCA
B9: chr1:60041781:60041782:+_ENSMUSG00000041040_ENSMUST00000036540|mus_hu|mus_mus_mus_hu_False|8_78 (ssRNA)
RNA: GGGAGUUCUACAGUCCGACGAUCAAGUUUACAAUAGUAAAGUAAAUGCAGUAGUGGAAUGGCAAGUUUUAUUUUCCUUCACAAAAGAAAAUCUUUAUAACCCAGUCCUAGUCUUGGACAUAGUGAAUCUCCAUGGGUCUGACUCAACAGAGGAUUGAGCAUCA
B10: chr9:37357388:37357389:+_ENSG00000147905_ENST00000336755|hu_mus|FALSE|FALSE (ssRNA)
RNA: GGGAGUUCUACAGUCCGACGAUCUGGACACAGACCUGAACUCUUUGUGGUCUCUGUACAGCCACUCCAGGCAUGGCCGGAACUCAGCAUUCAAUCCCAGCGUCUCAUUAACAGGUACUUAAGCACUUCCAGGACACUGAAGCGCAACAGAGGAUUGAGCAUCA
B11: chr18:47008509:47008510:-_ENSG00000177576_ENST00000318240|hu_hu|motif|central (ssRNA)
RNA: GGGAGUUCUACAGUCCGACGAUCCUGGCACAAACCUUCUAUUUAAUCAUAUUAUUCAAACAGCAAUAACAGAAAUGAAAGCGGCAUUAACGAAAAAGGAACUUAGGAAUGAGGUCAUUAAAUAUAACUAACUACAUUUUAAAUCAACAGAGGAUUGAGCAUCA
B12: chr9:95013113:95013114:-_ENSG00000196305_ENST00000443024|hu_hu|hu_hu_hu_mus_False|58_108 (ssRNA)
RNA: GGGAGUUCUACAGUCCGACGAUCCUCAGUGAGAAAAGGCGUGUAAGGGGCCAUCAGUCUGCACAGAGAAAGCAGGACACUAAACAAUGUCUCCAGAGCCAUGACACAGUCUUCCACCCCACUCUCACCCUUUAACCUCCUCCUCAACAGAGGAUUGAGCAUCA
B13: chr11:102150864:102150865:-_ENSMUSG00000059995_ENSMUST00000137387|mus_hu|motif|central (ssRNA)
RNA: GGGAGUUCUACAGUCCGACGAUCAAUUAGUACAGAACCCCCCCACACACACUCAGACACAGGAUACAGGGUGGACGACACCGGGCCGGGGUGGGAAGGAUGGGAAUUGAAACCCACACAGCCUGCUGUUAGAGGGAGGGGAGUCAACAGAGGAUUGAGCAUCA
B14: chr3:139076767:139076768:-_ENSG00000184432_ENST00000507777|hu_mus|FALSE|FALSE (ssRNA)
RNA: GGGAGUUCUACAGUCCGACGAUCACUUUAAUCAUCCAGAAUAUCUUCAUCCAGAUUAAUGUCUGUUGUGUCAAUAUCCUCUAAUUCCAAGUUAUCCAAAUCAACUUCUAGUUCUAGUAAACUCUUUUCUUCUUUGUGGGUAGUCAACAGAGGAUUGAGCAUCA
B15: chr9:108846149:108846150:+_ENSMUSG00000025651_ENSMUST00000026743|mus_hu|FALSE|FALSE (ssRNA)
RNA: GGGAGUUCUACAGUCCGACGAUCGCUCCCGGGUGCUGUAGGCAUUAAGAUGGGCCCCCAUGCUCUCCACCUCCUUCUCCAGGGCACUGCCAGGCCGAUUCUUUGUUCCCUUGAAAGCCAGAUGCUCCAAAAAGUAGCCUGCCCCAACAGAGGAUUGAGCAUCA
B16: chr8:95500983:95500984:-_ENSG00000164944_ENST00000437199|hu_hu|hu_hu_hu_mus_True|88_108 (ssRNA)
RNA: GGGAGUUCUACAGUCCGACGAUCAGAAGGAUUUUUACGAGUAAAGGGAGCGUACAUACGGCCUCUACCACUGCCUCCACUAACAAACUUUCCUCUCGAGCCUCCACUGCCGCUAUUUGUACUAGCCCAGGACGGUCCCAGGCCCAACAGAGGAUUGAGCAUCA
B17: 4844558_4844678_1027_CDS_ENSG00000120158_ENST00000381750|human|control|control (ssRNA)
RNA: GGGAGUUCUACAGUCCGACGAUCGUAGAUUUCCUCCAGCAGCAGCCGGGCACAGUUCCUGCCAAGGUCCUCUGGAAGUACUGCUGCUCCCUGGCCCUGGGGGUUGGAGGCCAGUUCAGCACUGAGGAAGGUGCCACUGGUGGUCAACAGAGGAUUGAGCAUCA
B18: 27431529_27433284_1818_CDS_ENSG00000033867_ENST00000419036|human|control|control (ssRNA)
RNA: GGGAGUUCUACAGUCCGACGAUCACGGAGGUAUAUCAAAUCAGGCUGAUGCUUAGCAGGCAUUCCAAAUAAUUUUAUACGGUCAAAUAACUGGAUUCCUUUUAAUGAGGAAACUCCCAUAUAAAGGAAAACACCAUACAGAACCAACAGAGGAUUGAGCAUCA
B19: 97312720_97312840_91_3pUTR_ENSMUSG00000021669_ENSMUST00000077672|mouse|control|control (ssRNA)
RNA: GGGAGUUCUACAGUCCGACGAUCCACCUGAACUCGGCCCCCUAGAUGCCAACCUCAGUCAGGGAGGGAGGAGGGGAGGAAGACGGGAAGAGCCAAGCCAACGGCAGAGACCCAGAUCCACUCACUCACACCUCCGCUACAGCCCAACAGAGGAUUGAGCAUCA
B20: chr19:8913615:8913616:-_ENSMUSG00000071658_ENSMUST00000096259|mus_hu|mus_mus_mus_hu_False|88_88 (ssRNA)
RNA: GGGAGUUCUACAGUCCGACGAUCAGGGUACCAAAACCUUCUGCCUGAGAUAGGUGCCCCACCCAGUAGGGAGUUGCAGCUGAAAGUAUCUGAUGCAGAAGCAGUGACUAUACGAAAGGAGGCCCCUGGGGAGGGCCAGGCCAGCAACAGAGGAUUGAGCAUCA
B21: chr14:76904430:76904431:+_ENSMUSG00000022010_ENSMUST00000022587|mus_mus|mus_mus_mus_hu_True|8_8 (ssRNA)
RNA: GGGAGUUCUACAGUCCGACGAUCUGCAGCCAAAAACACCCUCGUGGAAAAAAAGAGGGAACACCAGCAGCCUUGUAUAAGCUAGAUAAAAUCUUCUGGCUUUCCGCAGCCCAGGGAGAAACAGAAAUGGUGCUGGCUAAUUUACAACAGAGGAUUGAGCAUCA
B22: chr19:8913615:8913616:-_ENSMUSG00000071658_ENSMUST00000096259|mus_hu|mus_mus_mus_hu_False|78_98 (ssRNA)
RNA: B20 RNA with C37A, U38C, U39C, G46C, G48A, A51G, A64U, U66C

This assay concerns the target T1, UNK ZnF1-3. The experiment in a line: nsRBNS (natural sequence RNA bind-n-seq); RBNS binding buffer (assumed for nsRBNS): 25 mM Tris pH 7.5, 150 mM KCl, 3 mM MgCl2, 0.01% Triton X-100, 500 ug/ml BSA, 20 U/ml SUPERase-In, 4 C; UNK is unkempt and MSI1 is Musashi-1; names of the RNAs are library labels; protein concentration not given here; high values mean tight binding.
As to B1, the binding signal is 0.877 enrichment R. As for B2, the binding signal is 1.83 enrichment R.

The molecule B3 had a binding signal of 0.85 enrichment R.

Take B4: the binding signal turned out to be 0.578 enrichment R. To B5 belongs 1.37 enrichment R. Take B6: the binding signal is 0.812 enrichment R.

For B7, the binding signal is 0.337 enrichment R. To B8 belongs 1.2 enrichment R.

Regarding B9, the binding signal turned out to be 0.749 enrichment R.

With B10, the binding signal is 1.04 enrichment R. To B11 belongs 1.94 enrichment R. Next, B12: 1.6 enrichment R.

As to B13, the binding signal was 1.73 enrichment R.

In turn, B14 showed a binding signal of 0.427 enrichment R.

B15 yielded a binding signal of 1.21 enrichment R. Next, B16: 1.16 enrichment R; B17: 0.816 enrichment R. For B18, the binding signal turned out to be 0.837 enrichment R. Next, B19: 1.41 enrichment R. B20: the binding signal was determined as 1.18 enrichment R. Next, B21: 2.05 enrichment R; B22: 1.52 enrichment R.
